The BET-seq Pho4 binding data (Le et al. 2018)
The other results are listed elsewhere or left out. Values were computed here from the reads of four pooled replicates and scatter widely.

Each sequence was assayed against T1, Pho4 (S. cerevisiae) (UniProt P07270) (assay: relative binding free energy (BET-seq); higher = weaker binding). Details: reference: library average.
T1 sequence: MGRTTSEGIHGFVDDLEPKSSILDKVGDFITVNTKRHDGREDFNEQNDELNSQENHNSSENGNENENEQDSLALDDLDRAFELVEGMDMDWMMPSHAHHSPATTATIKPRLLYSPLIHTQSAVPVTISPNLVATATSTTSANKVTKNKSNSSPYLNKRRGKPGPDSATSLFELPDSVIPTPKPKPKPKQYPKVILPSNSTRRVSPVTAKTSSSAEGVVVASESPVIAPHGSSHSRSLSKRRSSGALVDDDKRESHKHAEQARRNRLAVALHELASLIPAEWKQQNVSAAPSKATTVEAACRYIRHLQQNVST

Sequence	relative binding free energy
GTTACCACGTGTGGTG	0.03 kcal/mol
ATCGGCACGTGGTTCT	-0.09 kcal/mol
ATTGGCACGTGTATAA	-0.13 kcal/mol
TTTTCCACGTGTAGTT	0.11 kcal/mol
GTAGACACGTGAGGAT	0.38 kcal/mol
TTCTTCACGTGGGAGA	0.31 kcal/mol
TGGTGCACGTGGTAGT	-0.05 kcal/mol
GGTATCACGTGGAGGC	0.1 kcal/mol
TCGTGCACGTGAGGTA	0.17 kcal/mol
ATCGTCACGTGATTGT	0.16 kcal/mol
ACAGTCACGTGATGGG	0.04 kcal/mol
TAGGCCACGTGGGGTC	-0.17 kcal/mol
TGTGCCACGTGTGAAG	0.03 kcal/mol
AAGGACACGTGTAGGT	0.08 kcal/mol
TTGAACACGTGGTTTA	0.04 kcal/mol
GTGATCACGTGGTTTT	0.16 kcal/mol
GAGGACACGTGTGATG	0.16 kcal/mol
GTTATCACGTGATTAG	0.37 kcal/mol
TGTGTCACGTGGCCAG	-0.12 kcal/mol
CTAGTCACGTGTTTTA	0.17 kcal/mol
ATAATCACGTGTTGTT	0.04 kcal/mol
GGGTTCACGTGGTTCT	0.33 kcal/mol
AGCGGCACGTGTAAGG	-0.18 kcal/mol
GTGAGCACGTGGGCGG	-0.14 kcal/mol
TTTTGCACGTGCGGCA	0.01 kcal/mol

Sequence	relative binding free energy
GATTTCACGTGGCGGG	0.3 kcal/mol
AATAGCACGTGGGCTG	-0.27 kcal/mol
AGCTTCACGTGGTTGC	0.15 kcal/mol
TGTGGCACGTGGGCCG	-0.31 kcal/mol
GGTGTCACGTGTGTTC	0.11 kcal/mol
ATAAACACGTGTGGTG	0 kcal/mol
CAATTCACGTGGTAGT	0.23 kcal/mol
AGTTGCACGTGGGTCA	-0.15 kcal/mol
TAATGCACGTGATTTT	0.03 kcal/mol
CGGATCACGTGGCGGA	0.37 kcal/mol
TTGTTCACGTGTTGGA	0.23 kcal/mol
ATTGACACGTGAAGGA	0.22 kcal/mol
TCTGTCACGTGGTAGA	0.01 kcal/mol
CTCGACACGTGGGGGG	-0.13 kcal/mol
TGGCGCACGTGTAGGC	0.05 kcal/mol
GAATTCACGTGAGAGG	0.42 kcal/mol
TTTTTCACGTGGTACA	0.15 kcal/mol
ATGCGCACGTGCTTGG	-0.22 kcal/mol
TATTACACGTGAAATG	0.43 kcal/mol
GGGGACACGTGCGTGA	-0.07 kcal/mol
GTCTGCACGTGTATTT	0 kcal/mol
ATGTGCACGTGGATGG	-0.03 kcal/mol
TATTGCACGTGTATGT	-0.03 kcal/mol
TGGTGCACGTGTACGA	-0.02 kcal/mol
GGTTTCACGTGAATGC	0.5 kcal/mol

Sequence	relative binding free energy
TTTTACACGTGCATGG	0.1 kcal/mol
GGTATCACGTGGTAAG	0.37 kcal/mol
ATCTTCACGTGTGGCA	0.24 kcal/mol
AGTGGCACGTGATTTC	0.14 kcal/mol
TGTTGCACGTGTTTGT	0.01 kcal/mol
TCATGCACGTGTGGTG	0.02 kcal/mol
GAGGACACGTGTACGG	0.17 kcal/mol
GTTAACACGTGGATGG	0.14 kcal/mol
GGAGTCACGTGAACTT	0.38 kcal/mol
AGGCACACGTGTTAGG	0.04 kcal/mol
GCAGTCACGTGGCGTT	0.12 kcal/mol
TTAATCACGTGATATT	0.28 kcal/mol
GTTCTCACGTGAATGG	0.35 kcal/mol
TGATACACGTGGAGGA	0.07 kcal/mol
TATTGCACGTGGTAAT	-0.05 kcal/mol
TTGATCACGTGTGCCT	0.06 kcal/mol
TAGGGCACGTGTTATC	-0.12 kcal/mol
CTGCGCACGTGGGGAG	-0.27 kcal/mol
GTGTACACGTGCGATG	-0.04 kcal/mol
TCTGACACGTGGTGTT	-0.07 kcal/mol
TTTTACACGTGTTTAC	0.22 kcal/mol
TTATTCACGTGTAAAT	0.29 kcal/mol
TGGAGCACGTGCGAGT	0.02 kcal/mol
CTTGACACGTGTGGAG	-0.02 kcal/mol
AGATACACGTGGTGTA	-0.04 kcal/mol

Sequence	relative binding free energy
TTCGGCACGTGCGTGA	-0.1 kcal/mol
AGGAACACGTGTTGAT	0.07 kcal/mol
CGTGCCACGTGGGGGC	-0.22 kcal/mol
TCGAGCACGTGGATGG	-0.13 kcal/mol
CGAAACACGTGGTGTG	-0.12 kcal/mol
AGTGTCACGTGAATTG	0.2 kcal/mol
TTTCTCACGTGGAGTA	0.2 kcal/mol
TTGGACACGTGTGGGG	0.19 kcal/mol
CGAGTCACGTGTGGGA	0.2 kcal/mol
TTTCACACGTGAGGAT	0.35 kcal/mol
TACAGCACGTGTGTGT	-0.07 kcal/mol
CGAGGCACGTGGGTGC	-0.42 kcal/mol
TATGACACGTGTTGGT	0.08 kcal/mol
TTGCGCACGTGGTAGT	-0.17 kcal/mol
TGAATCACGTGGTTAT	0.2 kcal/mol
GGCGGCACGTGAGCGG	0.1 kcal/mol
TTCTTCACGTGAAGGC	0.44 kcal/mol
GTTTGCACGTGCGGCT	0.04 kcal/mol
CCTGTCACGTGGGTAG	-0.04 kcal/mol
TTGTGCACGTGGGTAC	-0.03 kcal/mol
TTGAACACGTGCAGGT	-0.1 kcal/mol
GTTTTCACGTGGCGTG	0.19 kcal/mol
TTTGACACGTGTACGA	0.11 kcal/mol
GGCGGCACGTGGGCGA	-0.16 kcal/mol
GTGCGCACGTGTAAAG	0.15 kcal/mol

Sequence	relative binding free energy
GTTATCACGTGTTTAC	0.17 kcal/mol
GGTTACACGTGTTACA	0.31 kcal/mol
TCGAGCACGTGGGATT	-0.08 kcal/mol
GGGGACACGTGATTCG	0.18 kcal/mol
TTAAACACGTGGGTTA	-0.13 kcal/mol
AGTTGCACGTGATCGG	0.03 kcal/mol
TTTCACACGTGTGTGG	0.12 kcal/mol
AAAGACACGTGGGCGT	-0.12 kcal/mol
TTGCTCACGTGGAAGG	0.29 kcal/mol
TTTAGCACGTGAGTAA	0.04 kcal/mol
AAATGCACGTGGTGTG	-0.18 kcal/mol
TGTCTCACGTGTGTGT	0.34 kcal/mol
TGAGGCACGTGCTATT	-0.09 kcal/mol
AAGGTCACGTGCGTTG	0.04 kcal/mol
TGTTGCACGTGAATTA	0.23 kcal/mol
ATTTGCACGTGTCGCG	0.04 kcal/mol
TTGTTCACGTGTCGAG	0.36 kcal/mol
GTATGCACGTGGAGTA	-0.02 kcal/mol
TGTTACACGTGGTATG	0.07 kcal/mol
GCTTCCACGTGGGGGG	0.01 kcal/mol
GATATCACGTGGTGTC	0.1 kcal/mol
AGATGCACGTGGCGAT	0.09 kcal/mol
GGGGACACGTGGAAAA	0.22 kcal/mol
GAAAGCACGTGATAGT	0.15 kcal/mol
TGGTGCACGTGGTGTC	-0.01 kcal/mol

Sequence	relative binding free energy
TTTGTCACGTGGATAC	0.2 kcal/mol
GTGGTCACGTGCAGGC	-0.02 kcal/mol
TGATTCACGTGTGACG	0.23 kcal/mol
TTAAGCACGTGCGGTG	-0.2 kcal/mol
ATAATCACGTGAGTAT	0.22 kcal/mol
GAGTTCACGTGCGCGT	0.25 kcal/mol
GTGTTCACGTGCTGCT	0.06 kcal/mol
AGTTCCACGTGCGGTT	0.05 kcal/mol
TAATGCACGTGGGGTT	-0.13 kcal/mol
TTTGACACGTGGATGC	-0.1 kcal/mol
AAGTACACGTGGTGAT	-0.06 kcal/mol
AGTCTCACGTGGAGTA	0.29 kcal/mol
AGGGGCACGTGAGCAA	0.06 kcal/mol
GGAGACACGTGAGCGG	0.31 kcal/mol
TATGGCACGTGGATAC	-0.05 kcal/mol
GGTGCCACGTGATGGT	0.2 kcal/mol
ATGGGCACGTGCAGTA	-0.17 kcal/mol
TGTAACACGTGGATGT	-0.04 kcal/mol
CATTTCACGTGTTGAT	0.12 kcal/mol
TAGTGCACGTGGGGTC	-0.18 kcal/mol
CGATTCACGTGGGTGA	0.18 kcal/mol
